This is one part of the list. Sequences were assembled here from the parent chain. Values near 0.05 are background.
B1: TEV protease; numbered along this chain (parent)
chain: MGESLFKGPRDYNPISSSICHLTNESDGHTTSLYGIGFGPFIITNKHLFRRNNGTLVVQSLHGVFKVKDTTTLQQHLVDGRDMIIIRMPKDFPPFPQKLKFREPQREERICLVTTNFQTKSMSSMVSDTSCTFPSGDGIFWKHWIQTKDGQCGSPLVSTRDGFIVGIHSASNFTNTNNYFTSVPKNFMELLTNQEAQQWVSGWRLNADSVLWGGHKVFMVKPEEPFQPVKEATQL

Variants of: B1
Test: raw area under fraction-flipped curve 0-4 h after induction (AUC4h, not background-subtracted), DNA-recorder readout of cleavage of the substrate (dimensionless); higher = more cleavage of the substrate by the protease variant
Details: temperature: 34 °C; time window: 0-4 h after rhamnose induction
Protocol: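 In vivo DNA recorder in E. coli TOP10(DE3) ΔrhaA at 34 °C. Each TEVp single-site mutant (parent TEVp 0) is paired with a single-site variant of the 7-mer TEVs (canonical ENLYFQ|S). The substrate sits between flexible linkers in a Bxb1-sfGFP-TEVs-SsrA fusion, so cleavage stabilises Bxb1 and speeds flipping of a recombination array, read by NGS. The value is the raw area under the fraction-flipped curve over 0-4 h after rhamnose induction (AUC4h), with ≥20 reads per time point. It is not background-subtracted; inactive controls average about 0.047.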
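Also: Bxb1 expression induced with 0.2% (w/v) L-rhamnose at OD600 near 0.5, cultures sampled hourly, flipped fraction per protease–substrate barcode pair counted by paired-end Illumina sequencing.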

| Variant | area with substrate EALYFQS | area with substrate ECLYFQS | area with substrate EDLYFQS | area with substrate EELYFQS | area with substrate EGLYFQS | area with substrate EKLYFQS | area with substrate ELLYFQS | area with substrate EMLYFQS | area with substrate EQLYFQS | area with substrate ERLYFQS | area with substrate ESLYFQS | area with substrate EVLYFQS | area with substrate EWLYFQS | area with substrate EYLYFQS | area with substrate EHLYFQS | area with substrate EILYFQS | area with substrate EPLYFQS | area with substrate ETLYFQS | area with substrate EFLYFQS |
| --- | --- | --- | --- | --- | --- | --- | --- | --- | --- | --- | --- | --- | --- | --- | --- | --- | --- | --- | --- |
| M83W | 0.0649 | 0.093 | 0.0674 | 0.0376 | 0.0682 | 0.0613 | 0.057 | 0.0598 | 0.0732 | 0.066 | 0.081 | 0.0627 | 0.058 | 0.102 |  |  |  |  |  |
| H47K | 0.0583 | 0.0591 | 0.0544 | 0.0574 |  | 0.0423 |  | 0.0422 | 0.0489 | 0.0558 | 0.0522 | 0.058 |  |  | 0.0617 | 0.0868 | 0.0616 | 0.05 |  |
| H47F | 0.047 | 0.0616 | 0.0597 | 0.0498 | 0.0635 | 0.0519 |  | 0.0443 | 0.0672 | 0.0579 | 0.06 | 0.0581 |  | 0.0446 |  | 0.056 | 0.0578 | 0.0558 |  |
| H47D | 0.0392 | 0.0685 |  | 0.0572 |  | 0.0574 | 0.0696 | 0.0503 | 0.064 | 0.0644 |  |  | 0.0743 |  | 0.0709 | 0.0548 |  |  |  |
| T71L | 0.125 |  | 0.115 |  |  | 0.0939 |  | 0.103 | 0.13 | 0.0897 | 0.114 | 0.005 | 0.1 | 0.117 | 0.11 | 0.101 |  |  | 0.101 |
| T71W | 0.118 | 0.0766 |  | 0.0958 | 0.0788 | 0.0826 |  |  | 0.126 |  | 0.0762 | 0.0867 | 0.168 |  | 0.0945 | 0.078 | 0.0883 |  |  |
| T71C | 0.0891 | 0.093 | 0.1 |  |  | 0.114 |  | 0.104 | 0.108 |  | 0.118 |  | 0.118 | 0.0919 | 0.104 | 0.107 | 0.11 |  |  |
| G37P | 0.0568 | 0.0401 |  | 0.0617 | 0.156 | 0.0642 | 0.0537 | 0.0615 | 0.0605 |  | 0.0518 |  |  |  | 0.0549 | 0.0499 | 0.0233 |  | 0.0529 |
| N45H | 0.0599 | 0.0604 | 0.0555 |  |  | 0.09 | 0.0625 | 0.0587 | 0.0565 | 0.0649 | 0.0566 | 0.0547 | 0.0672 | 0.0681 | 0.0543 | 0.0575 | 0.0597 | 0.0428 |  |
| N45I | 0.068 | 0.0533 |  | 0.0588 | 0.0636 | 0.0441 | 0.0555 |  | 0.064 | 0.0627 | 0.0492 |  |  |  | 0.0625 | 0.055 | 0.0539 |  |  |
| N45V | 0.0719 | 0.071 |  | 0.0842 | 0.0611 | 0.0693 | 0.064 |  | 0.0697 | 0.0654 | 0.0655 | 0.0751 | 0.0564 | 0.0505 |  | 0.0615 |  | 0.0778 | 0.0747 |
| I42Y | 0.0592 | 0.0468 | 0.0629 | 0.0509 | 0.059 | 0.0578 |  | 0.0549 | 0.0572 | 0.0357 | 0.0524 | 0.0517 | 0.056 | 0.0487 | 0.004 | 0.0507 |  | 0.0463 |  |
| I42C | 0.101 | 0.0903 | 0.0965 | 0.106 | 0.0608 | 0.0892 | 0.0946 | 0.0955 | 0.115 | 0.0852 | 0.0908 | 0.0872 | 0.0885 | 0.0969 | 0.102 | 0.0682 | 0.0939 | 0.0803 |  |
| H62F | 0.122 | 0.107 |  | 0.118 |  | 0.119 | 0.0913 | 0.105 | 0.118 | 0.102 | 0.1 | 0.0862 | 0.0959 | 0.109 |  | 0.0904 | 0.1 |  | 0.0907 |
| H62D | 0.109 | 0.0949 | 0.111 | 0.0995 | 0.0838 | 0.0931 |  |  | 0.117 | 0.0908 | 0.0984 | 0.0983 | 0.0609 | 0.111 | 0.106 | 0.089 |  | 0.0978 |  |
| V57G | 0.116 |  |  |  |  | 0.0964 |  |  |  | 0.106 | 0.0539 | 0.0888 |  |  | 0.098 |  |  |  |  |
| G39Q | 0.0437 | 0.0355 |  |  |  | 0.0236 | 0.0444 | 0.0464 | 0.0414 | 0.0397 | 0.0446 | 0.0454 | 0.0443 |  |  | 0.0408 | 0.0424 | 0.0473 | 0.0546 |
| G63Y | 0.0821 | 0.0675 |  |  |  |  | 0.0792 | 0.0963 | 0.099 |  | 0.105 |  | 0.0837 |  | 0.0939 | 0.0876 | 0.0817 | 0.0873 |  |
| G63Q | 0.137 |  |  | 0.106 |  | 0.0752 | 0.0749 | 0.131 | 0.118 |  | 0.1 | 0.094 | 0.0956 | 0.0974 |  | 0.0829 | 0.167 |  | 0.103 |
| I84W | 0.0464 | 0.0596 |  |  | 0.0674 | 0.0605 | 0.0694 | 0.0437 | 0.0438 |  | 0.0523 | 0.0539 | 0.0591 | 0.0586 | 0.0535 | 0.0413 | 0.0569 |  |  |
| I85P | 0.0866 | 0.0457 | 0.0383 |  |  | 0.0255 |  |  | 0.0828 | 0.0406 | 0.0358 | 0.0389 | 0.0235 |  | 0.0433 | 0.0253 | 0.0231 |  |  |
| D69L | 0.093 | 0.0857 | 0.0776 | 0.0923 |  | 0.0877 | 0.069 | 0.0786 | 0.0561 | 0.0954 | 0.0781 | 0.0918 | 0.0751 |  | 0.0851 | 0.0707 | 0.104 |  |  |
| R50D | 0.159 | 0.111 |  | 0.117 | 0.0668 | 0.101 | 0.076 | 0.129 | 0.114 |  |  | 0.0962 | 0.0888 |  |  | 0.107 | 0.119 |  |  |
| V67L | 0.117 | 0.0924 |  |  | 0.101 |  | 0.0897 | 0.11 | 0.113 | 0.106 |  | 0.0825 |  |  | 0.0954 |  |  | 0.0915 | 0.0706 |
| T44W | 0.118 | 0.0468 | 0.0513 | 0.0458 | 0.039 | 0.0496 | 0.0357 |  | 0.0421 | 0.043 | 0.0465 | 0.047 | 0.0429 | 0.0295 | 0.0114 | 0.0438 | 0.0591 | 0.0432 |  |
| T44D | 0.0292 | 0.0463 |  | 0.0472 | 0.0435 | 0.0485 |  | 0.0364 | 0.0423 | 0.0559 | 0.0426 | 0.0494 | 0.0423 |  | 0.0465 | 0.0441 | 0.0414 | 0.0463 | 0.049 |
